# According to PubChem BioAssay (NCI):
# Where a structure was tested more than once in an assay, its records may differ in their call.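 Each cell line was grown in a 96-well plate and treated with one concentration of compound for 48 hours. Values below 10 were considered active.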 For part of its entries the source gives two or more results. They are shown here; other results are not. The source may hold further records. These are repeated runs of one drug, at the concentration stated with the values; each value is one run. Signs of the kind (2×) give the number of equal values in this list.
# Columns and labels:
# Assay in all cases: NCI-60 one-dose screen, 48 h (100 = growth as untreated, 0 = no growth, -100 = all killed)
# Settings in all cases: 2.5 mM
# T-47D breast = test system: T-47D breast
# BT-549 breast = test system: BT-549 breast
# MDA-MB-435 melanoma = test system: MDA-MB-435 melanoma
# SW-620 colon = test system: SW-620 colon
compound,measurement,setting,value
O=c1[nH]cc(F)c(=O)[nH]1,growth,T-47D breast; runs of 1998,"inactive: 15.2, 24.8, 29.3, 44.5, 46.9, 31.7, 26.2, 33.1, 25.9, 35.3, 26.7, 28.9, 35, 15.5, 53.2, 12.6% and active: -1.68, 6.41, 5.51, -16, -7.89, -6.14, -12.6%"
same,growth,T-47D breast; runs of 1999,"inactive: 25.8, 30.3, 20.5, 48.1, 20.6, 39% and active: -4.29, -35.2, -8.62, -25, -75.6, 5.93, -19, 2.59%"
same,growth,T-47D breast; runs of 2000,"active: -41.2%, 0.958%"
same,growth,BT-549 breast; runs of 1993,"inactive: 58.3, 61.3, 51.6, 12.8, 60.8, 35.6, 21, 43.8, 77.2, 53.7, 62.8, 46.8, 23.2, 40.1, 38.6, 51, 24.6, 65.9, 27.4, 93.2, 34.1 (2×), 52, 24.8, 33.6, 96.6, 36, 86.9, 52.1, 30.8, 40, 57.3% and active: 6.32%, -6.58%"
same,growth,BT-549 breast; runs of 1994,"inactive: 60.4, 14.9, 20.7, 47.6, 38.8 (2×), 40.7, 55.8, 49.8, 63.5, 24.7, 19.6, 31.8, 64.7, 25.5, 42.7, 34.8, 35, 68.8, 37.1% and active: 9.77%, 8.17%, -26.4%"
same,growth,BT-549 breast; runs of 1995,"inactive: 58.4, 37.2, 11.9, 32.5, 26.8, 45.9, 34.4, 47.9, 38.5, 17.8, 32.4, 29.1, 58, 40.7, 42.9, 55.4 (2×), 14.4, 55.5, 17.1, 36.6, 26.1, 52.9, 60.2, 39.5, 13.9, 54.4, 35.7, 13.1, 33.8, 62.3, 16.3% and active: 7.54, -22, -16, 8.96, -15.9, -11.3%"
same,growth,BT-549 breast; runs of 1996,"inactive: 37.2, 45, 21.9, 40.1, 33.6, 68.9, 42.8, 46.8, 39.5 (2×), 32.9, 25.4, 36.4, 46.5, 64.9, 49.4, 30 (2×), 40.2 (2×), 26, 49.6, 35.2, 30.7, 48.5, 64.3, 42.2, 43.2, 33.1, 39.2, 29.4, 45.5, 39.9, 53.5, 46.1, 32.5, 33.7, 43.8, 52.2, 38.5, 34.6, 36.3, 47.2, 58.3, 41.4, 27.2, 35.8 (2×), 39.6, 34% and active: 4.66%, 4.88%, -32%"
same,growth,BT-549 breast; runs of 1997,"inactive: 68, 45.8, 36.9, 61.7, 42.1, 26.8, 62.3, 44.6, 32.2, 30.5, 25.6, 18.5, 67.7, 31.6, 39.7, 34, 45.6, 38.2, 30.8, 38.3, 40.4, 45.1 (2×), 37.6, 77.8, 51.3, 24.2, 16.7, 49.9, 61.5, 47.9, 75, 20.9, 35.1, 47.5, 37.1, 51.4, 48.9, 21.8% and active: 9.73%, 5.16%"
same,growth,BT-549 breast; runs of 1998,"inactive: 41.5, 37.3, 68.3, 41.3, 47.4, 64.8, 33, 23.2, 70.9, 31, 35.2, 70.5, 24.3, 25.4, 50, 34.2, 40.9, 45.5, 29.5, 38.1, 28.9, 86.1, 65.6% and active: -8.52%"
same,growth,BT-549 breast; runs of 1999,"inactive: 56.3, 25.3, 25, 30.7, 32.7, 15.9% and active: -12.3, -30.1, 8.41, -51.1, -21.2, -63.4, 4.93, 3.66, 0.616%"
same,growth,BT-549 breast; runs of 2000,"active: -64.1%, 1.91%, -54% and inactive: 11.1%"
same,growth,MDA-MB-435 melanoma; runs of 1993,"inactive: 21.5, 20.3, 26.7, 32.1, 36.4, 25.5, 82.9, 21, 24, 23.8, 34.3, 34.5, 26.4, 29.1, 34.7, 16, 26, 26.2, 25.7, 22, 25.4, 23, 22.9, 16.2, 23.3, 30.8, 35.9, 10.8, 32.7, 93.5, 30.6, 22.2, 89.2, 36.6, 22.8, 20.5, 34.4, 26.8, 25.2, 28.7, 29.6%"
same,growth,MDA-MB-435 melanoma; runs of 1994,"inactive: 26.9, 33.1, 47.9, 22.3, 24.8, 21.7, 29.5, 27.9, 24.3, 40, 27.7, 19.9, 18.9, 34.3, 27.8 (2×), 30, 30.9, 32.2, 27, 35, 24.1, 20.6, 23.9, 34.2, 28.1, 18.4, 39.9% and active: -25.5%"
same,growth,MDA-MB-435 melanoma; runs of 1995,"inactive: 32.9, 29.2, 15.8, 23.6, 17.3, 34.5, 37.9, 26.3, 28, 30.3, 24.2, 16.3, 32.3, 25.4, 28.2, 32.1, 19.9, 20.7, 32.2, 28.7, 22.4, 38, 27.6, 28.3 (2×), 23.2, 10.6, 35.1, 19, 19.1, 25.3, 24.7, 23.8, 19.5, 21.3% and active: 9.02%, -10.7%, -38.4%"
same,growth,MDA-MB-435 melanoma; runs of 1996,"inactive: 36.5, 29, 26, 39.8, 22.3 (2×), 35 (2×), 11.3, 22, 31.3 (2×), 30.2, 27.7 (2×), 25.4, 52.7, 20.8, 34.7, 34.5, 31.7, 25.5, 29.8 (2×), 28.4, 46.5, 29.6 (2×), 33, 17.2, 24.8, 33.4 (2×), 39.9, 38.6, 35.8, 34.6, 34.2, 27.1 (2×), 25.6, 25.7, 25.8, 27.3, 26.9, 37.2, 14.9, 27.6, 47.9, 37.8, 30.8, 38.4 (2×), 28.2, 29.9, 32.2, 37.1, 21.1%"
same,growth,MDA-MB-435 melanoma; runs of 1997,"inactive: 25.2, 42.6, 24.6, 81, 19.9, 32.1, 29.2, 34.5, 36.7, 27.1, 33.4, 32.3, 33.5, 26.6, 15.5, 32.6, 21.2, 24.1, 29.5 (2×), 32.8, 23.6, 27.3, 29.6, 18.8, 25.5, 18.3, 23.3 (2×), 13.7, 25.8, 36.2, 22.5, 14.1, 19, 18.5, 30.4, 28.2, 25.9% and active: -100 (2×), -4.75, 1.21, 4.61%"
same,growth,MDA-MB-435 melanoma; runs of 1998,"active: -6.04% and inactive: 24.1, 25.5, 36, 35.7, 43.3, 35, 23.1, 21.2, 23.4, 37.7, 18.5, 28, 29.7, 22.9, 17.4, 38, 27.7, 17.8, 35.4, 20.3, 39.5, 18.7, 42.6, 19.7, 22%"
same,growth,MDA-MB-435 melanoma; runs of 1999,"active: -26, -63.6, 1.66, 0.155, -15.3, 0.0634, 6.07, 1.36, 0.687, -75, -34.5% and inactive: 45.3, 10.7, 12.8, 32.3, 32.1, 74.4%"
same,growth,MDA-MB-435 melanoma; runs of 2000,"active: 2.44, -30.1, -32.7, -26%"
same,growth,SW-620 colon; runs of 1991,"inactive: 30.1, 23.9, 21.3, 22.7, 24.6, 20.1, 14.3 (2×), 18.8, 10.4, 19.4, 18.2, 29, 14.1, 21.9, 29.9, 15.2, 15.6% and active: -87.4%"
same,growth,SW-620 colon; runs of 1992,"inactive: 26.9, 17.3, 16.6 (2×), 15.3 (2×), 12.7, 28, 22.6 (2×), 14.5, 19.1 (2×), 20.8 (2×), 24.3 (3×), 26.7 (2×), 17.5, 38.8, 20.2 (2×), 10.5, 47, 42.9, 25.7, 23.3, 21.6 (2×), 13.2, 14.9, 20.3 (2×), 24.2 (2×), 23.8 (2×), 21.2, 23.6, 25.2 (2×), 20.9, 33, 21.9 (3×), 16, 24.4 (3×), 23, 24.8 (2×), 22.1 (4×), 17.8, 18.8, 26.2, 23.4 (2×), 18.5, 20.4, 28.3, 29.4 (2×), 21.3 (2×), 21.8, 15.9, 19, 23.2, 13.8, 12.1, 25.3, 16.9, 22.3 (2×), 31.8, 14.8, 22.4 (3×), 22 (2×), 26.6 (2×), 19.5, 18.2, 18 (3×), 23.7, 37.6, 19.7, 13.6, 28.8, 24.5, 29.3, 29.8, 24, 37.9, 29.9, 26.4, 17.6, 36.9, 22.8% and active: -55.6, 7.07, -14.6, -69.2, -96.5, 9.51, -68.8%"
same,growth,SW-620 colon; runs of 1993,"inactive: 21.8, 27.2, 27.5, 28.1, 23.8, 24.2, 23.3, 28.8, 12.9, 14.9, 20.2 (2×), 19.5, 26.3, 22.6, 18.4, 24.8, 20.7, 35.9, 29.3 (2×), 18.2, 16, 19.9, 32.9, 22.5 (2×), 25.1, 26.4, 22.1 (2×), 13.9, 19.1, 23.5, 18.9, 31.1, 23.2, 18, 31.7, 21.7, 76.2, 69, 20.4, 35.5, 30.6, 30.2, 40.5, 25.7%"
